PMC10191626
No constants are given. Whether binding was seen depends on the method and setting. For part of these data: Binding seen in cells or lysates may run through a third protein. Some binding calls cover weakened binding; strength is not graded here. One block for each substance: values may come before it.

By UniProt entry, the sequences of proteins in these tests, tags left out. Residues count along the entry.
UniProt P60953: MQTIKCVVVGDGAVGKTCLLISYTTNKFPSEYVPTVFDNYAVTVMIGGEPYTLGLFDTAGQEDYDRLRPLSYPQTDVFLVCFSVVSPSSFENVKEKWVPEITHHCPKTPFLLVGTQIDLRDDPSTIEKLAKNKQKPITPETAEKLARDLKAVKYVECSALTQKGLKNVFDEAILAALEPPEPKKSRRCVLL
UniProt Q13153, residues 70-117: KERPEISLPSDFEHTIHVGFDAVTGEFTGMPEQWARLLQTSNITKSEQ
UniProt Q92747: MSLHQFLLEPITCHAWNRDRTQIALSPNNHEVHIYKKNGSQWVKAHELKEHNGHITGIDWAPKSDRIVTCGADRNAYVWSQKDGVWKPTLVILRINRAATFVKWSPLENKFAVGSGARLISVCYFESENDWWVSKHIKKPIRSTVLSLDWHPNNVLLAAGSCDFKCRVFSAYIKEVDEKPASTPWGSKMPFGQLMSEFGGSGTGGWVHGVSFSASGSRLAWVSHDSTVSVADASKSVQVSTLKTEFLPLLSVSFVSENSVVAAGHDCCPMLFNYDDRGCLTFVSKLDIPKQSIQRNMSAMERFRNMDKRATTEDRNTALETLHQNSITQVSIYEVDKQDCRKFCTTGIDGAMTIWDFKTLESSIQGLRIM

Assays:
[1] = biological target: CDC42, endogenous, active (GTP-bound), captured on PAK1-PBD beads (human (endogenous in HMEC, MDA-MB231, MCF7, MDA-MB468, Calu1, HT-29, HUVEC)) (UniProt P60953); assay: pull-down; active RAC1/CDC42 pull-down from cell lysates with GST-PAK1-PBD beads (Thermo Fisher kit Cat# 16118/19 or purified fusion beads), blots of the precipitate; cells with or without EGF (100 ng/ml, 15 min), ERK3 knock-down or knock-out, reconstitution with ERK3 WT or KD, or ARP3 S418D overexpression
[2] = biological target: GST-PAK1-PBD (pGEX2TK-PAK1 (70–117), p21-binding domain) fusion beads (UniProt Q13153); assay: pull-down; GST-PAK1-PBD beads incubated with ERK3 (aa 9–327) or with CDC42 pre-loaded with GTPγS or GDP; blot and Ponceau S; both purified
[3] = biological target: recombinant CDC42 protein (no tag) (UniProt P60953); assay: ELISA; 100 ng/well of bait (RAC1, CDC42, ARP3 or ARP2/3 complex) coated in PBS pH 7.5; titrant ERK3 protein at 5, 10, 20 and 40 nM in 1% BSA/PBS, 2 hr at RT; detected with anti-GST or anti-ERK3 antibody; GST as negative control; both purified
[4] = biological target: GST-CDC42 (pGEX-2T-CDC42-WT) on glutathione beads (UniProt P60953); assay: pull-down; GST-RAC1 or GST-CDC42 WT beads incubated with ERK3 kinase domain (aa 9–327); both purified
[5] = biological target: GST-CDC42 (pGEX-2T-CDC42-WT) on glutathione beads (UniProt P60953); assay: pull-down; GST-RAC1 or GST-CDC42 on glutathione beads loaded with GTPγS or GDP, incubated with recombinant human ERK3 for 1 hr at 4°C in 25 mM Tris-HCl pH 7.2, 150 mM NaCl, 5 mM MgCl2, 1% NP-40, 5% glycerol; GST on beads as negative control; both purified

Substance: V5-tagged wild type ERK3 (ERK3 WT) in shERK3 HMECs (from UniProt Q16659 1-721)
binding [1]: binds

Substance: full-length GST-ERK3 (SignalChem, Cat# M31-34G) (from UniProt Q16659 1-721)
binding [3]: binds

Substance: ERK3 kinase domain (aa 9–327) (Crelux) (from UniProt Q16659 9-327) (domain or fragment)
binding [4]: binds
binding [2]: no binding

Substance: V5-tagged kinase dead ERK3 (ERK3 KD, K49A/K50A) in shERK3 HMECs (from UniProt Q16659 1-721)
binding [1]: binds

Substance: ARPC1A, endogenous (HMEC) (from UniProt Q92747 1-370)
binding [1]: binds

Second part, the substance after the results:

binding [2]: binds
Substance: recombinant CDC42 protein (no tag) (from UniProt P60953 1-191)

binding [1]: binds
Substance: ERK3 (MAPK6), endogenous (from UniProt Q16659 1-721)

binding [5]: binds
Substance: recombinant human ERK3 protein (Cat# OPCA01714, Aviva Systems Biology) (from UniProt Q16659 1-721)
